Experimental data reported in patent publication US9353185B2, “Antibodies” (Affitech Research AS, priority 2010, dated 2016).

B1: C-9P21: human anti-CXCR4 antibody; scFv SEQ ID NO: 35; IgG1/kappa heavy chain SEQ ID NO: 108, light chain SEQ ID NO: 109 (antibody)
heavy: QVQLQESGGGLVHPGGSLRLSCAASGFTFSSYWMHWVRQAPGKGLVWVSRINSDGSSTSYADSVKGRFTISRDNAKNTLYLQMNSLRAEDTAVYYCARKILGVGARSRRYFDYWGQGTMVTVSS[human IgG1 constant region left out]
light: ETTLTQSPGTLSLSPGERATLSCRASQSVVSNYLAWYQQKPGQAPRLLISGASNRATGISDRFSGSGSGADFTLTISRVEPEDSAVYYCQQFDKSTWTFGQGTKVEIKRTVAAPSVFIFPPSDEQLKSGTASVVCLLNNFYPREAKVQWKVDNALQSGNSQESVTEQDSKDSTYSLSSTLTLSKADYEKHKVYACEVTHQGLSSPVTKSFNRGEC
modifications: antibody sequence
B2: D-1K21: human anti-CXCR4 antibody; scFv SEQ ID NO: 68; IgG1/kappa heavy chain SEQ ID NO: 120, light chain SEQ ID NO: 121 (antibody)
heavy: [about 100 residues left out]RNLIAARPRNRGRDAFDIWGQGTMVTVSS[human IgG1 constant region left out]
light: DIQMTQSPSTLSASVGDRVTITCRASQSIGGSLAWYQQKPGKGPNLLIYAASTLQSGVPSRFSGSGSGTEFTLTISSLQPEDSATYYCQHYESYPLSFGGGTKLEIKRTVAAPSVFIFPPSDEQLKSGTASVVCLLNNFYPREAKVQWKVDNALQSGNSQESVTEQDSKDSTYSLSSTLTLSKADYEKHKVYACEVTHQGLSSPVTKSFNRGEC
modifications: antibody sequence

Columns and labels:
CXCR4 [1] = molecular target: T1, CXCR4 (Homo sapiens, UniProt P61073); experiment: Interference with ligand binding: scFv binding to Jurkat and Ramos cells without and with SDF-1α or AMD3100; settings: transfected and naturally CXCR4 expressing cells
T1 construct: CRL-1596 (Ramos); host or cells: Ramos, Jurkat 6E-1, CCRF-CEM
From the text: One molecule is SDF-1, the natural ligand to CXCR4, the other one is AMD3100, a peptide derived highly specific competetive inhibitor to SDF-1α binding to CXCR4.
Jurkat and Ramos cells were maintained as described above.
The scFv clones were expressed in large scale and purified as monomer fraction by SEC fractionation. The natural CXCR4^+ expressing cell lines Jurkat and Ramos were harvested from the culture flasks, washed 2 times with PBS supplemented with 0.2% BSA and 0.09% NaN3 buffer and aliquoted at 1×10^5 cells per well into V-shaped 96-well plates (Greiner Bio-One, Frickenhausen, Germany). Cells were pelleted by centrifugation (400 g, 5 min) and then incubated for 60 min at 4° C. with 1 μg SDF-1α (PeproTech EC, London, UK) and 50 μl scFv diluted to 10 μg/ml in PBS supplemented with 0.2% BSA and 0.09% NaN3 buffer, both added at the same time to the cells. A sample without ligand or 157 μg AMD3100 served as control for the specificity of CXCR4 since AMD3100 only binds to this receptor. AMD3100 was added simultaneously with the scFv to the cells. […]

CXCR4 [2] = molecular target: T1, CXCR4; experiment: Interference with ligand binding: IgG binding to CCRF-CEM cells without and with SDF-1α
Description: CCRF-CEM were maintained as described above.
Cells of the natural CXCR4^+ expressing cell line CCRF-CEM were harvested from the culture flasks, washed 2 times with PBS supplemented with 0.2% BSA and 0.09% NaN3 buffer and aliquoted at 1×10^5 cells per well into V-shaped 96-well plates (Greiner Bio-One, Frickenhausen, Germany). Cells were pelleted by centrifugation (350 g, 5 min) and then incubated for 60 min at 4° C. with 4, 1, 0.5 μg SDF-1α (PeproTech EC, London, UK) and 50 μl IgG diluted to 2 μg/ml in PBS supplemented with 0.2% BSA and 0.09% NaN3 buffer, both added at the same time to the cells. Samples without ligand served as control. The supernatants were aspirated after a centrifugation step at 350 g for 5 min and the cells were washed another two times with 150 μl PBS supplemented with 0.2% BSA and 0.09% NaN3 and centrifugation steps (5 min at 350 g) before being stained with RPE-conjugated goat anti-human IgG (AbD seroTec #204009) diluted to 2.5 μg/ml in with PBS supplemented with 0.2% BSA and 0.09% NaN3 and incubated for 30 minutes at 4° C. The cells were washed again and re-suspended in 200 μl PBS with 0.2% BSA and 0.09% NaN3 and transferred to a U-shaped 96-well plate (Corning) for flow cytometry using an EasyCyte device (Guava Technologies, Hayward, Calif., USA).

CCRF-CEM cells = experiment: Antibody dependent cellular cytotoxicity (ADCC) with human PBMCs, calcein-AM release; assay type: cell-based; settings: for EC50 (ng/mL) scFv / Max killing (%) scFv / EC50: scFv cross-linked with anti-cMyc IgG1, CCRF-CEM, human PBMCs E:T 20:1; for Max killing (%) scFv: 4 hrs; for EC50: read-out: EC50 scFv, molar value in brackets
Description: One potential mechanism by which an antibody can be therapeutically useful is the ability to mediate ADCC of CXCR4 expressing target cells, if killing the target cell is the preferred mode of action. This was tested using CCRF-CEM cells which are derived from T cell lymphoma and have constitutive expression of CXCR4. The selected antibodies were tested both as scFv fragments cross-linked with anti-cMyc antibody and as fully human IgG1 antibodies.
CCRF-CEM cells were maintained as described above.
CCRF-CEM target cells, were sedimented by centrifugation and washed twice in RPMI-1640 medium. 2.5×10^6 cells/ml was mixed with calcein-AM (Invitrogen) to a final concentration of 10 μM and incubated at 37° C. for 30 min. The cells were washed three times in RPMI-1640 medium supplemented with 10% FCS and the cell density was adjusted to 3×10^5 cells/ml. Human PBMCs were prepared from fresh donor blood by Lymphoprep (Axis-Shield, Liverpool, UK) density gradient centrifugation, washed in RPMI-1640/10% FCS and stored frozen in RPMI with 10% FCS and 10% DMSO at density 3×10^7 cells/ml in liquid nitrogen. The effector cells were thawed on day of the experiment, washed in RPMI with 10% FCS and resuspended at density 6×10^6 cells/ml. Fifty μl of each target and effector cells were mixed in the same wells of a 96-well microtiter plate thus providing an effector-to-target (E:T) cell ratio of 20:1. The antibodies in IgG1 format were added to the same wells in a volume of 100 μl resulting in a concentration range of 0.8 to 1000 ng/ml. Accordingly, the scFv fragments were added in 20 μl volume for final concentrations from 2.5 to 5×10^4 ng/ml, after having before being pre-mixed with an excess (20 μg/ml) of anti-cMyc chimeric (mouse variable/human constant) IgG1 antibody (derived from hybridoma 9E10). The microtiter plate was incubated for 4 hrs at 37° C. After 3 hrs and 45 min incubation, 20 μl 0.9% Triton-X100 was added to control wells to achieve complete lysis of the target cells (maximal lysis). 100 μl supernatant of each sample was then transferred into a black microtiter plate and the fluorescence (excitation at 488 nm, emission at 518 nm) was recorded using a TECAN M200 plate reader. Each experiment was carried out in quadruplicates. The fluorescence intensity of the samples without antibodies was subtracted as a background and the percentage of specific lysis in samples with antibodies was calculated. The dose-response curves were computed by nonlinear regression analysis and a three-parameter fit model using Prism software (GraphPad).

T1 sequence (P61073 whole entry): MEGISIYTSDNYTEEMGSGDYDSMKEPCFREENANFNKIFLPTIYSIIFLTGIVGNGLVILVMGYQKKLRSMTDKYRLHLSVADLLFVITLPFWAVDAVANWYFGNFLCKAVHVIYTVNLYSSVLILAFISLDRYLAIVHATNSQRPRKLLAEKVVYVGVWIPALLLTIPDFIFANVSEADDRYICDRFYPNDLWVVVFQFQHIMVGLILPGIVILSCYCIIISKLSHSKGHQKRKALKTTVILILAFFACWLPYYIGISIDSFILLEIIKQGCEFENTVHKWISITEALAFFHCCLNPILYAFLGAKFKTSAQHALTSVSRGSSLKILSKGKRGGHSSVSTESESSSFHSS

Row | Molecule | binding to all cell types tested (CXCR4 [1]) | specific binding to CCRF-CEM cell line (CXCR4 [2]; IgG 2 μg/ml (0.1 μg per 10^5 cells)) | inhibition of antibody binding by SDF-1 (CXCR4 [2]; IgG, 4, 1, 0.5 μg SDF-1α, CCRF-CEM cells) | ADCC activity against CCRF-CEM cells (CCRF-CEM cells; scFv and IgG, human PBMCs) | EC50 (ng/mL) scFv (CCRF-CEM cells) | Max killing (%) scFv (CCRF-CEM cells) | EC50 (CCRF-CEM cells)
1 | B1 | excellent binding | specific binding | inhibited by SDF-1 | greatest maximum cell killing | 2.7 ng/mL | 96.4% | 0.09 nM
2 | B2 |  |  |  |  | 18.8 ng/mL | 68.6% | 0.7 nM
